# Reference: article PMC3584131
# Amino acid sequences for entries named in this document (tags omitted).
# UniProt Q9QZS3: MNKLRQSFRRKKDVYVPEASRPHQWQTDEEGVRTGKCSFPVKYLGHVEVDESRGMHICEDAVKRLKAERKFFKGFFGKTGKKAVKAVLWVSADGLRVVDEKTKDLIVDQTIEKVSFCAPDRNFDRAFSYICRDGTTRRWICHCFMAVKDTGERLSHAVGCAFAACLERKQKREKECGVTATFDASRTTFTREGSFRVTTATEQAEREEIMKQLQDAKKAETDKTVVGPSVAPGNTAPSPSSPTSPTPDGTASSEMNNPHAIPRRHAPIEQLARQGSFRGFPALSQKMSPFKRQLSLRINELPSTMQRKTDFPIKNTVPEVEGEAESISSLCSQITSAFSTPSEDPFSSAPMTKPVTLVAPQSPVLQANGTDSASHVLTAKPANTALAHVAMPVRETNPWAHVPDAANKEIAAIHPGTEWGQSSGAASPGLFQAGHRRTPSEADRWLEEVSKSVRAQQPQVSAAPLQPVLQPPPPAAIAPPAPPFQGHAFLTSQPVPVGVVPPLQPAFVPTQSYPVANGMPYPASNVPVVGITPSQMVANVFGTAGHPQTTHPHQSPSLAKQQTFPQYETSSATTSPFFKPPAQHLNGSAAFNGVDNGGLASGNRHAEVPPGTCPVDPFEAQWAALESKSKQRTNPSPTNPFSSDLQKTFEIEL
# Results are given in words; binding and its absence hold for the method and conditions named. For some assays here: In cells and extracts the contact can be indirect. Some entries that bind do so weakly or less than the wild type. Tags and fused reporters may be left off the sequences shown.
# Experiments:
# [1] = molecular target: T1, myc-TBC1D15 (expressed in TISCs) (murine) (UniProt Q9CXF4); assay: co-IP; cytoplasmic lysates of transfected murine TISCs; immunoprecipitation with anti-Numb agarose or anti-myc antibody, 4°C; five washes in Buffer W (300 mM NaCl, 0.5% triton X-100); immunoblot
# T1 sequence: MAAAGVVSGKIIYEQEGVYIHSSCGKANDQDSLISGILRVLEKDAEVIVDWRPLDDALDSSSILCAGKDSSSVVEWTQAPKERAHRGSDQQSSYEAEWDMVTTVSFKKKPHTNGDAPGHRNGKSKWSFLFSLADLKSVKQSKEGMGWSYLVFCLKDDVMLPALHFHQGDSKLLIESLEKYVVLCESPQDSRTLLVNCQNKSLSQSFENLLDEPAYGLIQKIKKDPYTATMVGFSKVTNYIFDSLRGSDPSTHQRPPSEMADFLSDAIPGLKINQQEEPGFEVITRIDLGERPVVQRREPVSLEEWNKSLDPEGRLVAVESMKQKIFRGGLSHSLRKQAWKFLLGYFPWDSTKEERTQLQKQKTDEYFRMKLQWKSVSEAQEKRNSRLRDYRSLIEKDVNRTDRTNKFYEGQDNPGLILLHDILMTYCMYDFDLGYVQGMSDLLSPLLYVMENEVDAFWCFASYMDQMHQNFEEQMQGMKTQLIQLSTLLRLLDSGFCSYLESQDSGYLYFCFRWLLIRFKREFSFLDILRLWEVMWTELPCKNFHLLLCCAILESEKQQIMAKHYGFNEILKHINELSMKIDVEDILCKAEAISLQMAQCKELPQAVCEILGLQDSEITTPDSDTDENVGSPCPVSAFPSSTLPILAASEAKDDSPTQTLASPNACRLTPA
# [2] = molecular target: T2, myc-TBC1D15 (expressed in HEK-293A cells) (murine) (UniProt Q9CXF4); assay: pull-down; competition: fixed Flag-Numb-3A first incubated alone or with increasing His6-p53 (1.0-20 nM), then mixed with myc-TBC1D15 agarose or BSA-agarose; extensive washing; immunoblot; both purified
# T2 sequence: T1 sequence
binding [1],binding [2],Substance
binds,–,Flag-Numb (expressed in TISCs) (from UniProt Q9QZS3 1-653)
–,no binding (tested: 1.0–20 nM),His6-p53 (from UniProt P04637 1-393)
